40 sequences from PMC12820563 can be followed below.

The other results are listed elsewhere or left out. The list includes weakly bound sequences.

The assay addresses T1, MBP-FoxP3dN (UniProt Q99JB6).
T1 sequence: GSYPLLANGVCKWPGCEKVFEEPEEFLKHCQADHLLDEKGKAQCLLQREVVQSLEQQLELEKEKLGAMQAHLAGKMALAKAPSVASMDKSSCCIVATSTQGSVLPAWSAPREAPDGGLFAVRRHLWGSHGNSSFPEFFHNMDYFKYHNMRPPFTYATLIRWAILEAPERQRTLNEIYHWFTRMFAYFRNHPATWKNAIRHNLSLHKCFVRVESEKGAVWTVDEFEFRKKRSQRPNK
As to the kind of experiment: PD-seq (MBP pull-down with sequencing). The note with it: 20 mM Tris-HCl pH 7.5, 100 mM NaCl, 1.5 mM MgCl2, 0.4 uM protein, 0.1 uM dsDNA library, 30 min, room temperature, amylose pull-down; high values mean tight binding; double strand, one strand shown.
Regarding “GATGATTGTTCTCCCAGCTGATGAATTCTTTAGATCGAGTAAACAAATTTTCCTAATCTTTCTGTTCAAGCGCCATCTAC”, the binding signal (RPM ratio (pull-down/input)) came to 0.255. Take “GATGATTGTTCTCCCAGCTGATGAATTGTAACCCTCGAGTAAACAAATTTTCCTAATCTTTCTGTTCAAGCGCCATCTAC”: the binding signal (RPM ratio (pull-down/input)) came out at 0.553. On to “GATGATTGTTCTCCCAGCTGATGAATTTAATGGTTCGAGTAAACAAATTTTCCTAATCTTTCTGTTCAAGCGCCATCTAC”, for which the binding signal (RPM ratio (pull-down/input)) was found to be 2.17. As to “GATGATTGTTCTCCCAGCTGATGAATTTAAGCCTTCGAGTAAACAAATTTTCCTAATCTTTCTGTTCAAGCGCCATCTAC”, the binding signal (RPM ratio (pull-down/input)) came to 1.91. As to “GATGATTGTTCTCCCAGCTGATGAATTCTTATTGTCGAGTAAACAAATTTTCCTAATCTTTCTGTTCAAGCGCCATCTAC”, the binding signal (RPM ratio (pull-down/input)) is 1.04. For the sequence “GATGATTGTTCTCCCAGCTGATGAATTCTAGGTCTCGAGTAAACAAATTTTCCTAATCTTTCTGTTCAAGCGCCATCTAC”, the binding signal (RPM ratio (pull-down/input)) was determined as 0.369.

For “GATGATTGTTCTCCCAGCTGATGAATTTTGCAGCTCGAGTAAACAAATTTTCCTAATCTTTCTGTTCAAGCGCCATCTAC”, the binding signal (RPM ratio (pull-down/input)) worked out at 3.37.

On to “GATGATTGTTCTCCCAGCTGATGAATTCACAGCTTCGAGTAAACAAATTTTCCTAATCTTTCTGTTCAAGCGCCATCTAC”, for which the binding signal (RPM ratio (pull-down/input)) came to 0.314. For “GATGATTGTTCTCCCAGCTGATGAATTTCGTGAGTCGAGTAAACAAATTTTCCTAATCTTTCTGTTCAAGCGCCATCTAC”, the binding signal (RPM ratio (pull-down/input)) turned out to be 0.505.

Take “GATGATTGTTCTCCCAGCTGATGAATTCTACCCATCGAGTAAACAAATTTTCCTAATCTTTCTGTTCAAGCGCCATCTAC”: the binding signal (RPM ratio (pull-down/input)) is 0.282.

On to “GATGATTGTTCTCCCAGCTGATGAATTGATCAGGTCGAGTAAACAAATTTTCCTAATCTTTCTGTTCAAGCGCCATCTAC”, for which the binding signal (RPM ratio (pull-down/input)) amounted to 0.232. For the sequence “GATGATTGTTCTCCCAGCTGATGAATTGGGACACTCGAGTAAACAAATTTTCCTAATCTTTCTGTTCAAGCGCCATCTAC”, the binding signal (RPM ratio (pull-down/input)) worked out at 1.27.

Regarding “GATGATTGTTCTCCCAGCTGATGAATTGAACTGGTCGAGTAAACAAATTTTCCTAATCTTTCTGTTCAAGCGCCATCTAC”, the binding signal (RPM ratio (pull-down/input)) worked out at 0.209.

As to “GATGATTGTTCTCCCAGCTGATGAATTCATGGGATCGAGTAAACAAATTTTCCTAATCTTTCTGTTCAAGCGCCATCTAC”, the binding signal (RPM ratio (pull-down/input)) stood at 0.286. On to “GATGATTGTTCTCCCAGCTGATGAATTGGATTCATCGAGTAAACAAATTTTCCTAATCTTTCTGTTCAAGCGCCATCTAC”, for which the binding signal (RPM ratio (pull-down/input)) is 0.418. Consider “GATGATTGTTCTCCCAGCTGATGAATTGTCACCATCGAGTAAACAAATTTTCCTAATCTTTCTGTTCAAGCGCCATCTAC”, for which the binding signal (RPM ratio (pull-down/input)) amounted to 0.682. For the sequence “GATGATTGTTCTCCCAGCTGATGAATTGCAGATCTCGAGTAAACAAATTTTCCTAATCTTTCTGTTCAAGCGCCATCTAC”, the binding signal (RPM ratio (pull-down/input)) was found to be 0.553. Turning to “GATGATTGTTCTCCCAGCTGATGAATTAAGCTATTCGAGTAAACAAATTTTCCTAATCTTTCTGTTCAAGCGCCATCTAC”, the binding signal (RPM ratio (pull-down/input)) was found to be 1.95. Consider “GATGATTGTTCTCCCAGCTGATGAATTGCTCACATCGAGTAAACAAATTTTCCTAATCTTTCTGTTCAAGCGCCATCTAC”, for which the binding signal (RPM ratio (pull-down/input)) turned out to be 0.686. Regarding “GATGATTGTTCTCCCAGCTGATGAATTGGGCTTTTCGAGTAAACAAATTTTCCTAATCTTTCTGTTCAAGCGCCATCTAC”, the binding signal (RPM ratio (pull-down/input)) stood at 2.22. For the sequence “GATGATTGTTCTCCCAGCTGATGAATTCCGGCTTTCGAGTAAACAAATTTTCCTAATCTTTCTGTTCAAGCGCCATCTAC”, the binding signal (RPM ratio (pull-down/input)) was 0.891. Under “GATGATTGTTCTCCCAGCTGATGAATTTCTGGGATCGAGTAAACAAATTTTCCTAATCTTTCTGTTCAAGCGCCATCTAC” stands 0.212; under “GATGATTGTTCTCCCAGCTGATGAATTCCTTTATTCGAGTAAACAAATTTTCCTAATCTTTCTGTTCAAGCGCCATCTAC”, 0.445. For the sequence “GATGATTGTTCTCCCAGCTGATGAATTACTCGCTTCGAGTAAACAAATTTTCCTAATCTTTCTGTTCAAGCGCCATCTAC”, the binding signal (RPM ratio (pull-down/input)) was 0.366. Under “GATGATTGTTCTCCCAGCTGATGAATTGAAACCGTCGAGTAAACAAATTTTCCTAATCTTTCTGTTCAAGCGCCATCTAC” stands 0.248; under “GATGATTGTTCTCCCAGCTGATGAATTAAACTTATCGAGTAAACAAATTTTCCTAATCTTTCTGTTCAAGCGCCATCTAC”, 0.491; under “GATGATTGTTCTCCCAGCTGATGAATTTCCCGTTTCGAGTAAACAAATTTTCCTAATCTTTCTGTTCAAGCGCCATCTAC”, 0.25. Consider “GATGATTGTTCTCCCAGCTGATGAATTATGCTTGTCGAGTAAACAAATTTTCCTAATCTTTCTGTTCAAGCGCCATCTAC”, for which the binding signal (RPM ratio (pull-down/input)) was determined as 4.71. In the case of “GATGATTGTTCTCCCAGCTGATGAATTACGCAACTCGAGTAAACAAATTTTCCTAATCTTTCTGTTCAAGCGCCATCTAC”, the binding signal (RPM ratio (pull-down/input)) amounted to 6.03. For “GATGATTGTTCTCCCAGCTGATGAATTGGTAGCCTCGAGTAAACAAATTTTCCTAATCTTTCTGTTCAAGCGCCATCTAC”, the binding signal (RPM ratio (pull-down/input)) was 0.924.

Take “GATGATTGTTCTCCCAGCTGATGAATTAACTAAGTCGAGTAAACAAATTTTCCTAATCTTTCTGTTCAAGCGCCATCTAC”: the binding signal (RPM ratio (pull-down/input)) was found to be 0.206.

Consider “GATGATTGTTCTCCCAGCTGATGAATTATGAGACTCGAGTAAACAAATTTTCCTAATCTTTCTGTTCAAGCGCCATCTAC”, for which the binding signal (RPM ratio (pull-down/input)) was determined as 0.829. In the case of “GATGATTGTTCTCCCAGCTGATGAATTGCAGGGTTCGAGTAAACAAATTTTCCTAATCTTTCTGTTCAAGCGCCATCTAC”, the binding signal (RPM ratio (pull-down/input)) was determined as 0.708. For “GATGATTGTTCTCCCAGCTGATGAATTTATGGAGTCGAGTAAACAAATTTTCCTAATCTTTCTGTTCAAGCGCCATCTAC”, the binding signal (RPM ratio (pull-down/input)) was 0.454. Turning to “GATGATTGTTCTCCCAGCTGATGAATTAGGCAACTCGAGTAAACAAATTTTCCTAATCTTTCTGTTCAAGCGCCATCTAC”, the binding signal (RPM ratio (pull-down/input)) stood at 4.84. Take “GATGATTGTTCTCCCAGCTGATGAATTCAATAGGTCGAGTAAACAAATTTTCCTAATCTTTCTGTTCAAGCGCCATCTAC”: the binding signal (RPM ratio (pull-down/input)) turned out to be 0.536. Under “GATGATTGTTCTCCCAGCTGATGAATTCGTGGATTCGAGTAAACAAATTTTCCTAATCTTTCTGTTCAAGCGCCATCTAC” stands 0.486; under “GATGATTGTTCTCCCAGCTGATGAATTGTGGCTGTCGAGTAAACAAATTTTCCTAATCTTTCTGTTCAAGCGCCATCTAC”, 1.13. In the case of “GATGATTGTTCTCCCAGCTGATGAATTACAGAAGTCGAGTAAACAAATTTTCCTAATCTTTCTGTTCAAGCGCCATCTAC”, the binding signal (RPM ratio (pull-down/input)) worked out at 0.212. Consider “GATGATTGTTCTCCCAGCTGATGAATTCTCTCAATCGAGTAAACAAATTTTCCTAATCTTTCTGTTCAAGCGCCATCTAC”, for which the binding signal (RPM ratio (pull-down/input)) is 0.226.
